Measurements taken from US10005836B2, “Antibody drug conjugates” (Novartis AG, priority 2014, dated 2018).
Positions count from the first letter of the chain named.

B1: NEG0012: humanized anti-P-cadherin antibody, heavy chain SEQ ID NO:29, light chain SEQ ID NO:39 (antibody)
heavy: EVQLVQSGAEVKKPGESLKISCKVSGYTFTDHTIHWMRQMPGKGLEWMGYIYPRSGSINYNEKFKGQVTISADKSSSTAYLQWSSLKASDTAMYYCARRNLFLPMEYWGQGTLVTVSSASTKGPSVFPLAPSSKSTSGGTAALGCLVKDYFPEPVTVSWNSGALTSGVHTFPAVLQSSGLYSLSSVVTVPSSSLGTQTYICNVNHKPSNTKVDKRV[human IgG1 Fc not printed]
light: DIVMTQTPLSLPVTPGEPASISCRSSQSLLSSGDQKNYLTWYLQKPGQSPQLLIYWASTRESGVPDRFSGSGSGTDFTLKISRVEAEDVGVYYCQNDYRYPLTFGQGTKLEIKRTVAAPSVFIFPPSDEQLKSGTASVVCLLNNFYPREAKVQWKVDNALQSGNSQESVTEQDSKDSTYSLSSTLTLSKADYEKHKVYACEVTHQGLSSPVTKSFNRGEC
B2: NEG0012-MCC-DM1 (conjugate)
heavy: B1 heavy
light: B1 light
B3: NEG0013: humanized anti-P-cadherin antibody, heavy chain SEQ ID NO:49, light chain SEQ ID NO:59 (antibody)
heavy: B1 heavy
light: B1 light with D34N, R99S
B4: NEG0016: humanized anti-P-cadherin antibody, heavy chain SEQ ID NO:69, light chain SEQ ID NO:79 (antibody)
heavy: QIQLVQSGAEVKKPGSSVKVSCKVSGYTFTDHTLHWMRQAPGQGLEWMGYIYPRSGSTKYNENFRGRVTITADTSSSTAYMELSSLRSEDTAVYYCARRLLFLPLDYWGQGTLVTVSSASTKGPSVFPLAPSSKSTSGGTAALGCLVKDYFPEPVTVSWNSGALTSGVHTFPAVLQSSGLYSLSSVVTVPSSSLGTQTYICNVNHKPSNTKVDKRV[human IgG1 Fc not printed]
light: EIVMTQSPATLSLSPGERATLSCRSSQSLLSSGNQKSYLTWYQQKPGQAPRLLIYWASTRESGIPARFSGSGSGTDFTLTISSLQPEDFAVYYCQNDYSYPFTFGQGTKLEIKRTVAAPSVFIFPPSDEQLKSGTASVVCLLNNFYPREAKVQWKVDNALQSGNSQESVTEQDSKDSTYSLSSTLTLSKADYEKHKVYACEVTHQGLSSPVTKSFNRGEC
B5: NEG0067: humanized anti-P-cadherin antibody, heavy chain SEQ ID NO:109, light chain SEQ ID NO:119 (antibody)
heavy: B4 heavy with R65K, A97V
light: B4 light
B6: NEG0067-MCC-DM1 (conjugate)
heavy: B4 heavy with R65K, A97V
light: B4 light
B7: NEG0064: humanized anti-P-cadherin antibody, heavy chain SEQ ID NO:89, light chain SEQ ID NO:99 (antibody)
heavy: B4 heavy with A97V
light: B4 light

Key:
Human P-cadherin ECD = molecular target: T1, Human P-cadherin ECD (Homo sapiens, UniProt P22223); test: SPR (Biacore) affinity, antibody captured on Protein A; type: binding
T1 construct: 108-652-TAG; host or cells: Tn5 insect cells, baculovirus
T1 sequence (P22223 108-652): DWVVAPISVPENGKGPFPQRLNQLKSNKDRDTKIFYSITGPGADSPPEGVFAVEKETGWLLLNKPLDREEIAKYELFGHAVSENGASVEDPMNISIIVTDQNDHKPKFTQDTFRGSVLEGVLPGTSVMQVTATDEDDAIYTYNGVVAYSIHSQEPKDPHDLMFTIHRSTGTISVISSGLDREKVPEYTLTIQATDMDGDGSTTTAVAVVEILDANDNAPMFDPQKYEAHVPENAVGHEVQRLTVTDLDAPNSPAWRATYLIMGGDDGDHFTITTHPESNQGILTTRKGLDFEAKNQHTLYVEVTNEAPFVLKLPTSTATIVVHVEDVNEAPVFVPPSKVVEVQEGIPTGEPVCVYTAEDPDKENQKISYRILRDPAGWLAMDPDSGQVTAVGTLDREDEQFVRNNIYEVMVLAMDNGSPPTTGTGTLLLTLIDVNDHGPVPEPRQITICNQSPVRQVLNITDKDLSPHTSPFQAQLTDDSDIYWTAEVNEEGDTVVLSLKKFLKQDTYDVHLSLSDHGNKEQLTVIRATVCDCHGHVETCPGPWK
Experimental: The affinity of various antibodies and antibody drug conjugates (in Ab-MCC-DM1 format) to P-cadherin and its species orthologues was determined using SPR technology using a Biacore® T100 instrument (GE Healthcare, Pittsburgh, Pa.) or a Biacore® 2000 instrument (GE Healthcare, Pittsburgh, Pa.) using CM5 sensor chips.
Briefly, HBS-P^+ (0.01 M HEPES, pH 7.4, 0.15 M NaCl, 0.05% Surfactant P20) supplemented with 2% Odyssey® blocking buffer (Li-Cor Biosciences, Lincoln, Nebr.) was used as the running buffer for all the experiments on the Biacore® T100 instrument. HBS-P (0.01 M HEPES, pH 7.4, 0.15 M NaCl, 0.005% Surfactant P20) supplemented with 2% Odyssey® blocking buffer was used as the running buffer for all the experiments on the Biacore® 2000 instrument. The immobilization level and analyte interactions were measured by response unit (RU). Pilot experiments were performed to test and confirm the feasibility of the immobilization of Protein A (GE Healthcare, Pittsburgh, Pa.) and the capture of the test antibodies.
For kinetic measurements, experiments were performed in which the antibodies were captured to the sensor chip surface via the immobilized Protein A and the ability of the P-cadherin proteins to bind in free solution was determined. Briefly, 28 μg/ml of Protein A at pH 4.5 was immobilized on a CM5 sensor chip through amine coupling at flow rate of 10 μl/minute on two flow cells to reach 2300-3300 RUs. 0.01-0.25 μg/ml of test antibodies was then injected at 5 μl/min for 3 minute. Captured levels of the antibodies were generally kept below 400 RUs. Subsequently, 6.25-100 nM of P-cadherin ECD was diluted in a 2-fold series and injected at a flow rate of 40 μl/min for 2-4 min over both reference and test flow cells. Table 11 of tested ECDs is listed below. Dissociation of the binding was followed for 5 min. After each injection cycle, the chip surface was regenerated with PBS/6 M Guanidine HCl, pH 7.4 at 100 μl/min for 45 seconds. […] Experiments that were ran on the Biacore® 2000 instrument were globally fitted with a simple 1:1 interaction model using Scrubber 2 ® software version 2.0b (BioLogic Software) to obtain estimates of on rate (ka), off-rate (kd) and affinity (KD)

[1] = test system: HCC70 triple negative breast cancer xenograft; test: HCC70 TNBC xenograft, ADC efficacy screening; type: in vivo, mouse; conditions: 7 mg/kg single IV, day 42
Experimental: A representative photo of P-cadherin immunostaining on HCC70 tumors is shown to visualize the staining pattern in this xenograft model (FIG. 11A). IHC was performed using a Ventana Discovery XT autostainer. Sections of formalin fixed, paraffin embedded tumors were deparaffinized, treated with the Ventana Cell Conditioning #1 (CCIS) antigen retrieval reagent and then incubated for 60 minutes at room temperature in the primary antibody [mouse monoclonal anti-human P-cad antibody from BD Transduction Lab (Cat#610228, Lot 09934)] at a concentration of 10 ug/ml. This was followed by incubation with a biotinylated goat anti-mouse (Jackson Laboratories, cat#115-066-072, Lot#63620) used at working concentration of 1:250 was performed. Detection was performed using DAB Map Kit (Ventana Medical, cat#760-124). A non-specific mouse IgG antibody (Vector Laboratories Cat#1-2000, Lot# V0610) was used as a control to ensure that staining observed with the P-cadherin antibody was specific.
The 7 mg/kg dose level was selected as it was expected to provide a window to discern difference among ADC candidates in this model. Doses were adjusted to individual mouse body weights. The IV dose volume was 8 ml/kg.

[2] = test system: HCC70 breast cancer xenograft; test: HCC70 xenograft, linker comparison MCC versus CX1-1; type: in vivo, mouse; conditions: 7 mg/kg single IV
Experimental: Doses were adjusted to individual mouse body weights. The IV dose volume was 8 ml/kg.

Molecule | reaction with human P-cadherin (Human P-cadherin ECD) | other results
B1 | nanomolar level | 
B2 |  | mean tumor volume versus isotype-matched huIgG1-MCC-DM1 control group [1]: significantly different
B3 | nanomolar level | 
B4 | nanomolar level | 
B5 | nanomolar level | 
B6 |  | mean tumor volume versus linker-matched control IgG1 ADC group [2]: not statistically different
B7 | nanomolar level | 
